130 sequences from a collection of fitness landscapes (doi:10.1038/s41467-024-54723-y) can be followed below.

Whole data set: some 18,000 sequences, median “TetR repression strength (sort-seq, GFP reporter)” near 0.23, cut for the highest 2% near 0.68. Some of the results follow.

In this assay the target is TetR (class B, Tn10) (UniProt P04483). The assay can be described thus: TetR repression strength (sort-seq, GFP reporter) (relative to tetO2 = 1); higher = stronger repression. The following applies: E. coli. The method, boiled down: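 E. coli SIG10-MAX carried a low-copy plasmid library with eight randomized operator positions between a constitutive promoter and sfGFP, with TetR constitutively expressed. Cells grew 5 h at 37 °C in LB with 50 µg/mL chloramphenicol, then 10^6 cells were FACS-sorted into 13 fluorescence bins, each Illumina-sequenced. Repression strength is the top bin index plus one minus the read-weighted mean bin, divided by the wild-type operator value. Three independent transformations; variants with ≥30 reads in all replicates and CV ≤0.5 were averaged.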
Chain of UniProt P04483 (P04483 whole entry): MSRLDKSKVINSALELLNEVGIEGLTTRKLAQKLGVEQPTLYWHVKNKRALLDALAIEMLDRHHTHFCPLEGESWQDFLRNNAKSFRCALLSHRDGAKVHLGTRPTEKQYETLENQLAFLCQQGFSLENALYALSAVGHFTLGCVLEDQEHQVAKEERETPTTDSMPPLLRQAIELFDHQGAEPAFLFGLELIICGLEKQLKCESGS
TCCCTGTAAGTGTCGGAGA: the TetR repression strength turned out to be 0.049.

The sequence TCCCAGCCAGTGGGTGAGA gave a TetR repression strength of 0.0351. Then TCCCGCTAAGTACAAGAGA, with 0.228. Then TCCCTGAGAGTTAGCGAGA, with 0.0305; and TCCCGCATAGTGCGGGAGA, with 0.326.

As to TCCCATATAGTGGGCGAGA, the TetR repression strength turned out to be 0.306. Consider TCCCCAACAGTGCCCGAGA, for which the TetR repression strength is 0.441. Then TCCCAGTGAGTTACAGAGA, with 0.146. Then TCCCGACCAGTATATGAGA, with 0.1; and TCCCTTGTAGTTAGAGAGA, with 0.154. With TCCCGGTAAGTTAGCGAGA the figure was 0.0236; with TCCCATCAAGTGTTGGAGA, 0.202. Sequence TCCCGTCAAGTCGAGGAGA registered a TetR repression strength of 0.131. With TCCCAAGCAGTGTTAGAGA the figure was 0.217; with TCCCGAGGAGTAGGGGAGA, 0.231; with TCCCCGAGAGTAGGCGAGA, 0.221. Regarding TCCCGAGTAGTTAGAGAGA, the TetR repression strength came out at 0.0482. Then TCCCTAAGAGTCGTGGAGA, with 0.141. With TCCCGTACAGTGAGGGAGA the figure was 0.104; with TCCCAAGGAGTAGGCGAGA, 0.124. Then TCCCTAGCAGTTTCGGAGA, with 0.238. TCCCAGAGAGTAGCGGAGA displayed a TetR repression strength of 0.24. Sequence TCCCTTATAGTGGCGGAGA showed a TetR repression strength of 0.22. Then TCCCTGGTAGTTAGAGAGA, with 0.821; and TCCCCTTCAGTTTGAGAGA, with 0.298; and TCCCGACAAGTTATCGAGA, with 0.226.

As for TCCCATCAAGTGGTCGAGA, the TetR repression strength is 0.311.

On to TCCCGTGTAGTCCTTGAGA, for which the TetR repression strength turned out to be 0.331.

In the case of TCCCAACCAGTCTGAGAGA, the TetR repression strength stood at 0.348.

For the sequence TCCCCTTGAGTTGACGAGA, the TetR repression strength worked out at 0.302. The sequence TCCCGCTCAGTCGGAGAGA displayed a TetR repression strength of 0.242. Sequence TCCCGTTAAGTAGAGGAGA yielded a TetR repression strength of 0.232. Then TCCCTGCAAGTAGGGGAGA, with 0.0817; and TCCCCCTCAGTAACCGAGA, with 0.428; and TCCCCGACAGTAGTTGAGA, with 0.411. Then TCCCGCGCAGTGACGGAGA, with 0; and TCCCAAGCAGTACTAGAGA, with 0.36. With TCCCAATAAGTATGGGAGA the figure was 0.415. In the case of TCCCCATAAGTGCGTGAGA, the TetR repression strength is 0.0842. Then TCCCGTAGAGTATACGAGA, with 0.126. With TCCCAGTCAGTTGCAGAGA the figure was 0.343; with TCCCAAGAAGTGCTCGAGA, 0.196. TCCCATCTAGTCTATGAGA showed a TetR repression strength of 0.122. For TCCCTCAGAGTCGGTGAGA, the TetR repression strength stood at 0.547.

TCCCTGCTAGTAGGAGAGA gave a TetR repression strength of 0.415.

Sequence TCCCTTTAAGTGCACGAGA registered a TetR repression strength of 0.207.

With TCCCGGTTAGTTTTAGAGA, the TetR repression strength turned out to be 0.0155. TCCCGCCAAGTGTCGGAGA returned a TetR repression strength of 0.00964. Then TCCCGGCCAGTCAAGGAGA, with 0.328; and TCCCCATCAGTTCCGGAGA, with 0.207. With TCCCAGGTAGTTTGCGAGA the figure was 0.192; with TCCCCGTGAGTGCGGGAGA, 0.207.

For TCCCTGTAAGTGTGTGAGA, the TetR repression strength worked out at 0.214. In turn, TCCCCTTCAGTGTATGAGA returned a TetR repression strength of 0.218. Then TCCCTGAGAGTATCGGAGA, with 0.0942; and TCCCTTGTAGTTCGGGAGA, with 0.19; and TCCCTAACAGTAATAGAGA, with 0.569. With TCCCGGTGAGTAACAGAGA the figure was 0.471. With TCCCGATGAGTTATTGAGA the figure was 0.214.

The sequence TCCCGGTCAGTGGGTGAGA came in with a TetR repression strength of 0.202. Then TCCCCGACAGTCACGGAGA, with 0.245; and TCCCGGCGAGTGCTCGAGA, with 0.177. As for TCCCTAACAGTAGGGGAGA, the TetR repression strength amounted to 0.102.

For TCCCTATTAGTGCATGAGA, the TetR repression strength amounted to 0.194.

In turn, TCCCCTCTAGTGCATGAGA had a TetR repression strength of 0.311. The sequence TCCCGAGGAGTAAGCGAGA came in with a TetR repression strength of 0.155. Then TCCCGGAGAGTTGGCGAGA, with 0.0488; and TCCCGCTTAGTCAAAGAGA, with 0.317. With TCCCTCACAGTGGGGGAGA the figure was 0.189. With TCCCATGGAGTGTACGAGA the figure was 0.202; with TCCCCGGGAGTGGTCGAGA, 0.348; with TCCCAGGAAGTGCTGGAGA, 0.244. Consider TCCCGCTTAGTGAGGGAGA, for which the TetR repression strength is 0.419. With TCCCTCTTAGTATGCGAGA the figure was 0.165; with TCCCATGAAGTGCCCGAGA, 0.14.

TCCCACGCAGTCGCTGAGA showed a TetR repression strength of 0.306. TCCCTATCAGTCTCTGAGA yielded a TetR repression strength of 0.311.

For TCCCGATAAGTGTTGGAGA, the TetR repression strength was determined as 0.183. Then TCCCAGGGAGTGGCGGAGA, with 0.291. Turning to TCCCATGTAGTGATCGAGA, the TetR repression strength amounted to 0.159. Then TCCCGAAGAGTATTTGAGA, with 0.307; and TCCCTCGGAGTTGAAGAGA, with 0.308.

TCCCTATGAGTGATAGAGA gave a TetR repression strength of 0.765.

With TCCCCGGGAGTATACGAGA, the TetR repression strength turned out to be 0.189.

With TCCCAACTAGTGGGTGAGA, the TetR repression strength was found to be 0.137. Then TCCCGTACAGTCTACGAGA, with 0; and TCCCGTAGAGTTGTAGAGA, with 0.304. Then TCCCGGGAAGTTGCAGAGA, with 0.365. With TCCCCGGGAGTCGCGGAGA the figure was 0.355; with TCCCGTGAAGTCGCGGAGA, 0.0919; with TCCCACACAGTGAAAGAGA, 0.486.

On to TCCCTGACAGTCACAGAGA, for which the TetR repression strength turned out to be 0.194.

TCCCCTTGAGTGCTGGAGA: the TetR repression strength is 0.243.

For the sequence TCCCTGTAAGTGTGAGAGA, the TetR repression strength is 0.159. Then TCCCCATAAGTGGCGGAGA, with 0.106. In turn, TCCCTAATAGTGGTGGAGA came in with a TetR repression strength of 0.4. Then TCCCCTTGAGTTTAGGAGA, with 0.245; and TCCCTAAAAGTGTGCGAGA, with 0.279; and TCCCGAAAAGTTGTGGAGA, with 0.0642. Then TCCCTCTTAGTGCTCGAGA, with 0.286; and TCCCGCGGAGTCCATGAGA, with 0.0415; and TCCCGATGAGTGAGTGAGA, with 0.39.

TCCCGAGCAGTGGCGGAGA gave a TetR repression strength of 0.172.

The sequence TCCCCGTTAGTGTAAGAGA displayed a TetR repression strength of 0.0309. Then TCCCTCTGAGTTATGGAGA, with 0.0788. On to TCCCGAGCAGTACGAGAGA, for which the TetR repression strength stood at 0.305. Then TCCCGTGAAGTTGGTGAGA, with 0.209; and TCCCATAAAGTATCGGAGA, with 0.289; and TCCCTTTCAGTTCTGGAGA, with 0.201. With TCCCGTACAGTAGGGGAGA the figure was 0.172; with TCCCGGAAAGTTACAGAGA, 0.259; with TCCCAGGGAGTGTGTGAGA, 0.317.

In turn, TCCCAGAAAGTACCCGAGA came in with a TetR repression strength of 0.265.

Take TCCCCGGCAGTAGAAGAGA: the TetR repression strength was 0.146.

In turn, TCCCGGGAAGTGGATGAGA gave a TetR repression strength of 0.142. Regarding TCCCGTGCAGTAATTGAGA, the TetR repression strength was determined as 0.35. Then TCCCGTCCAGTTGAGGAGA, with 0.155. Then TCCCGGCCAGTCGCGGAGA, with 0.305; and TCCCGTAGAGTTAAAGAGA, with 0.314; and TCCCCTTAAGTTGCAGAGA, with 0.31.

In the case of TCCCATACAGTAACTGAGA, the TetR repression strength worked out at 0.277. Then TCCCCTGGAGTGAGTGAGA, with 0.163; and TCCCGACTAGTCAGGGAGA, with 0.515; and TCCCTTCTAGTTACTGAGA, with 0.464. TCCCACATAGTAGTGGAGA: the TetR repression strength is 0.185. Then TCCCCGATAGTCGGTGAGA, with 0.204; and TCCCGCAAAGTGGGCGAGA, with 0.191.

As for TCCCAGAGAGTGCTTGAGA, the TetR repression strength was found to be 0.167. Then TCCCAGTGAGTTGTAGAGA, with 0.167. Then TCCCGAGGAGTCGAAGAGA, with 0.177.
